# Test results as given in PubChem BioAssay AID1745853 (National Center for Advancing Translational Sciences (NCATS), 2022).
# The list shows a part of the results. Further columns of the screen follow, without active or inactive calls.
# Assays:
# Assay in all cases: Primary Screen for Target Class Profiling of Small Molecule Inhibitors of Methyltransferases
# [1] = molecular target: Glycine N-methyltransferase (Homo sapiens) (UniProt Q14749); conditions: purified enzyme, MTase-Glo SAH luminescence; measured here: GNMT inhibition; at 40 µM; stronger effect = lower value
# Outline: (§1)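 Each enzyme was assayed with SAM and its substrate. SAH formation detected by MTase-Glo luminescence; single-point 40 uM screen[…].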
# [2] = molecular target: Guanidinoacetate N-methyltransferase (Homo sapiens) (UniProt Q14353); conditions: purified enzyme, MTase-Glo SAH luminescence; measured here: GAMT inhibition; at 40 µM; stronger effect = lower value
# Outline: as §1
# [3] = molecular target: Histamine N-methyltransferase (Homo sapiens) (UniProt P50135); conditions: purified enzyme, MTase-Glo SAH luminescence; measured here: HNMT inhibition; at 40 µM; stronger effect = lower value
# Outline: as §1
# [4] = molecular target: Nicotinamide N-methyltransferase (Homo sapiens) (UniProt P40261); conditions: purified enzyme, MTase-Glo SAH luminescence; measured here: NNMT inhibition; at 40 µM; stronger effect = lower value
# Outline: as §1
# [5] = molecular target: Phenylethanolamine N-methyltransferase (Homo sapiens) (UniProt P11086); conditions: purified enzyme, MTase-Glo SAH luminescence; measured here: PNMT inhibition; at 40 µM; stronger effect = lower value
# Outline: as §1
# % is scaled to controls: 0 for no effect and ±100 for the full control effect.
SMILES,"activity change, negative = inhibition [1] [%]","activity change, negative = inhibition [2] [%]","activity change, negative = inhibition [3] [%]","activity change, negative = inhibition [4] [%]","activity change, negative = inhibition [5] [%]"
COc1cc(O)cc2c1C(=O)OC(C)CCCCCCC2 (stereo not given),-4.16,-4.99,1.43,-21.5,-3.01
CCC(C)NC(=O)c1ccc2c(=O)n(C)c3nnc(SCc4cc(C)ccc4C)n3c2c1 (stereo not given),5.31,1.2,2.64,12.4,1.96
CCCCN1C(=O)c2c(NC(C)=O)c3cc(OC)ccc3n2CC1(C)C(=O)NC1CCCCC1 (stereo not given),6.75,0,10.8,15.6,3.45
O=C1[C@H]2CN(S(=O)(=O)c3ccc(F)cc3)CCN2C(=O)N1CCO,-5.77,-8.88,-7.56,-4.33,-3.17
CC1(C(=O)NC2CCCCCC2)Cn2c(cc3sccc32)C(=O)N1Cc1cccc(Cl)c1 (stereo not given),-5,3.3,-3.85,-4.46,-3.47
COc1ccc(Cn2c3c(c(=O)n2Cc2ccccc2)CCN(Cc2c(C)noc2C)C3)cc1,-2,3.14,1.86,-9.75,-1.03
Cc1cc(C(=O)Nc2cc(Oc3ccc4nc(NC(=O)C5CC5)cn4n3)ccc2C)n(C)n1,-23.3,-9.09,-6.61,-20.1,-5.64
Cc1ccc(CN2C(=O)c3ccccc3CC2(C)C(=O)NCc2ccccc2)cc1 (stereo not given),-0.721,6.06,-4.72,-6.53,-3.59
O=C(c1ccncc1)N1CC(N(Cc2ccncc2)CC2CC2)C1,-0.783,-0.533,-0.486,-1.37,0.755
CCc1ccc(N2C(=O)c3ccccc3CC2(C)C(=O)NCc2ccccc2C)cc1 (stereo not given),-3.25,0,1.74,-0.964,2.77
C=C1CC23CC1CCC2C12OC(=O)C(C)(CCC1O)C2C3C(=O)O (stereo not given),-1.68,-3.12,4.88,-13.5,-7.29
COc1ccc(C(=O)N2CCC([C@@H]3CNC[C@H]3CO)CC2)cc1,-0.615,0.298,-0.736,3.38,-5.04
COc1ccc(N2CCN(CCNS(=O)(=O)c3ccc4oc(=O)c5ncn(C)c5c4c3)CC2)cc1,0.349,2.5,-12.5,-4.1,-0.987
Cc1noc(C)c1C(=O)N1CC(N2C(=O)c3c(c(C)nn3-c3ccccc3)C2C)C1 (stereo not given),-5.29,-2.53,-0.498,-11.3,-1.73
Cc1ccc(CNC(=O)C2(C)Cn3nc(C(=O)NCCC(C)C)cc3C(=O)N2C)cc1 (stereo not given),5.44,1.29,4.07,10.9,4.06
COCC(=O)N1CC(F)(F)C[C@H]1c1nc(-c2cccnc2)no1,0.647,1.49,2.26,-0.166,3.48
COc1cc(CNCCC(C)C)ccc1OCC(O)CN1CCSCC1 (stereo not given),-5.56,-12,-10.2,-17.5,-12.9
Cc1cc(C2CCCN2C(=O)c2ccc(F)c(F)c2)on1 (stereo not given),0.696,-2,1.45,-1.97,3.37
COc1ccc(CN2C(=O)c3ccc(-c4ccco4)n3CC2(C)C(=O)NC2CCCC2)cc1 (stereo not given),-10,0.445,-1.01,-9.35,-3.39
O=C(c1ccc(NS(=O)(=O)c2cccc3cccnc23)cc1)N1CCN(CC2CC2)CC1,2.26,-5.89,-2.67,-18.4,-9.29
CC1(C(=O)NC2CCCCCCC2)Cn2c(ccc2-c2ccccc2)C(=O)N1Cc1ccc(F)cc1 (stereo not given),-0.522,0,5.41,-4.07,2.26

SMILES,"activity change, negative = inhibition [1] [%]","activity change, negative = inhibition [2] [%]","activity change, negative = inhibition [3] [%]","activity change, negative = inhibition [4] [%]","activity change, negative = inhibition [5] [%]"
COc1ccc(OC)c2c1cc1n2CC(C)(C(=O)NC2CCCCCC2)N(Cc2ccco2)C1=O (stereo not given),0.995,4.77,2.48,-7.08,0.518
CNS(=O)(=O)c1ccc(Cl)c(-c2nnc(-c3ccccc3)o2)c1,-13.1,0.395,3.08,-4.16,1.86
CN1CCCC1c1nc(C2CN(C(=O)c3ccsc3)C2)no1 (stereo not given),-9.87,-15.9,-4.56,-16,-9.26
Cc1ccccc1CN1C(=O)c2ccc(-c3ccco3)n2CC1(C)C(=O)NC1CCCC1 (stereo not given),-5.99,2.05,2.64,-5.03,-1.78
O=c1c2ccccc2nc2n1CCC2O (stereo not given),5.02,7.38,0.116,-6.71,6.52
OCCN1CCN(CCCN2c3ccccc3Sc3ccc(Cl)cc32)CC1,-3.93,8.09,-4.03,-23.4,2.63
COc1ccc(Cn2c(=O)c3ccccc3n3c(-c4ccc(F)cc4)nnc23)cc1,-3.79,0,1.28,1.25,-2.17
CC(C)Cn1c(=O)c2ccccc2n2c(=O)n(CC(=O)NCc3ccccc3Cl)nc12,-1.3,-1.91,2.12,-5.81,-6.14
CC(C)C1c2cccn2CCN1C(=O)NC1CCCCC1 (stereo not given),12.5,0,8.26,3.81,8.5
CC(C)(C)NCc1cc(Nc2ccnc3cc(Cl)ccc23)c2c(c1O)CCCC2,3.4,5.79,-0.32,-10.4,-2.03
CNC(=O)N1CCC(C2CCN(C(=O)c3cnccn3)C2)CC1 (stereo not given),-0.702,0.334,1.11,0.693,1.51
Cc1occc1C(=O)N1CCC2(CCCN(CC3CCCCC3)C2=O)C1 (stereo not given),-10.1,-8.34,-3.38,-15.4,5.23
O=C(CCCn1ccc2cc(S(=O)(=O)N3CCCC3)ccc21)NCc1ccco1,3.77,0,3.76,2.68,3.2
CC(C)(C)c1ccc2c(c1)CC[C@H]2NC(=O)Nc1cccc2[nH]ncc12,-1.97,-19.3,5.7,-38.4,-6.29
Cn1c2c(c3ccccc31)C(C(=O)NCc1ccc(F)cc1)N(CCC1=CCCCC1)C(=O)CS2 (stereo not given),-7.11,-1.75,-2.34,-4.83,-3.6
O=C(NC1CCCCCC1)c1ccc(CN2C(=O)NC3(CCS(=O)(=O)CC3)C2=O)cc1,-4.75,-4.79,-4.32,-11.8,-8.79
O=C(O)CC[C@@H](C(=O)O)N1C(=O)c2ccccc2C1=O,-7.74,4.27,0.078,-3.11,8.35
COc1ccc(CN(C)Cc2ccoc2)cc1OCC(O)CN1CCCCC1 (stereo not given),-1.53,-1.21,-21.3,1.68,3.06
C=C1C(=O)OC2CC(C)C(CCC(C)=O)=CCC12 (stereo not given),-3.72,-3.84,3.76,-15.5,2.05
O=S(=O)(Nc1cccn2nc(C3CC3)nc12)c1cccnc1,-48.6,-46.5,-8.85,-22.1,-31.4
